Data: the supplement of paper PMC4166925
± gives the standard deviation of the averaged measurements. The full ranking holds about 33,000 sequences; the median of “E-score (dimensionless, -0.5 to 0.5)” is about -0.049, and the highest 2% start at about 0.37. Some of the results follow.

System: T1, PmTbr T-box DNA-binding domain (GST fusion)
T1 sequence: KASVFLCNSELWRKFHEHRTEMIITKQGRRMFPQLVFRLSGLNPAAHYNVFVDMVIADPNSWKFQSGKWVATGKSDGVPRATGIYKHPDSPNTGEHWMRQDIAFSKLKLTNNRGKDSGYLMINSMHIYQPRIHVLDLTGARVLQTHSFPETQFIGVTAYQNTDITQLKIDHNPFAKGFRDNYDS
Experiment: PBM E-score of 8-mer (E-score (dimensionless, -0.5 to 0.5)); Tbr is Tbrain of the sea star Patiria miniata (Pm) or the sea urchin Strongylocentrotus purpuratus (Sp); higher = stronger binding preference; most listed sequences are background and not binding sites
Conditions: the construct has about 5 more residues each side
Outline: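 Using the Universal PBM Analysis Suite, every ungapped 8-mer received an enrichment E-score averaged over duplicate arrays. Probe intensities came from double-stranded Universal Agilent oligonucleotide arrays incubated with 200 nM GST-fused Tbr T-box DNA-binding domain in PBS (pH 7.5). That protein was expressed in BL21 E. coli at 20 °C and purified by glutathione affinity chromatography.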

Sequence	PBM E-score of 8-mer
ACGTTTCA	-0.0816 ± 0.035
AAACATCT	-0.112 ± 0.027
GGTATCCA	-0.312 ± 0.0063
AGTAATCG	0.0908 ± 0.014
AACTAGCA	0.217 ± 0.026
GTTGGTCA	-0.143 ± 0.0084
ACATCCTG	0.0332 ± 0.063
AGATCTGC	0.0583 ± 0.037
AGACTGCT	-0.251 ± 0.0051
GCGTTCCC	0.0727 ± 0.14
GTCCTACA	-0.1884 ± 0.00044
AGCATAAG	-0.309 ± 0.017
ACTTGATC	-0.181 ± 0.017
GGACGTTA	-0.262 ± 0.07
AATCTGTA	-0.195 ± 0.0054
ATCACATC	0.195 ± 0.058
CCACAGTA	-0.161 ± 0.11
ACGGGCAG	-0.0614 ± 0.042
GAGATTAA	-0.0614 ± 0.094
ATTTGTTA	0.109 ± 0.081
AGAGGCTC	-0.182 ± 0.061
CATTAATG	-0.284 ± 0.014
GGGACTAC	-0.252 ± 0.024
CTTGGTAC	0.0262 ± 0.049
AATATGCC	-0.296 ± 0.028

Sequence	PBM E-score of 8-mer
CTTTTCAC	0.305 ± 0.054
CTGATTAA	-0.146 ± 0.062
CAGTAATA	-0.0753 ± 0.039
CGAGCGGA	-0.294 ± 0.016
CAATGCAC	-0.0352 ± 0.00081
GAGGGCGC	0.174 ± 0.043
CATAGATG	0.043 ± 0.013
GGAGAGCA	-0.183 ± 0.018
GACGCAGA	-0.157 ± 0.0063
GGAAGGAC	-0.2825 ± 0.0015
GAGTTAAA	-0.135 ± 0.093
ATCTGAAG	-0.261 ± 0.022
AATCGTTC	-0.17 ± 0.013
CCTGGGTC	-0.201 ± 0.022
AGTTGATG	-0.059 ± 0.034
AAGTACAG	0.0294 ± 0.0034
CGCAGCAA	0.121 ± 0.056
AAATTGCT	-0.121 ± 0.025
GGGCGCTA	0.346 ± 0.018
ATCCCAAG	-0.275 ± 0.07
ACCCACAC	0.3374 ± 0.0032
TGTCTAAA	-0.0695 ± 0.011
CGTCCAAG	-0.0278 ± 0.029
ATCTTATC	-0.0724 ± 0.004
AGATGTCG	0.161 ± 0.062

Sequence	PBM E-score of 8-mer
ACCCGCGA	0.328 ± 0.011
AACTCGGG	-0.2567 ± 0.0024
AGGCGGCA	0.12 ± 0.016
CCTAAGAC	-0.178 ± 0.094
CATGGTCG	-0.128 ± 0.012
GGCAACCC	-0.108 ± 0.014
AACACATT	0.389 ± 0.028
CAACACTA	0.323 ± 0.04
GAAATGGA	-0.0435 ± 0.084
ACTATGCT	0.00416 ± 0.025
AGTTGTCG	0.309 ± 0.0099
TTAAATAA	-0.0746 ± 0.12
ACAAGGCG	0.149 ± 0.044
TCGCGCAA	0.249 ± 0.028
ATCCGTAA	-0.0887 ± 0.078
CGTGGAGC	-0.239 ± 0.021
CAGGAATG	-0.0757 ± 0.044
GAGCAGAA	-0.113 ± 0.017
CGCGCCTA	0.31251 ± 0.00022
ACTTGGAT	-0.0102 ± 0.017
GGATAGGA	-0.243 ± 0.0065
TGAGTAAA	0.147 ± 0.022
AAAAAAAT	0.081 ± 0.092
GAAAACGA	-0.245 ± 0.012
CTCAGAGC	0.156 ± 0.053

Sequence	PBM E-score of 8-mer
TGGTAACA	0.277 ± 0.028
AAATTACC	0.0161 ± 0.14
AGAGTAGC	0.00211 ± 0.11
GAGAAAAC	0.0669 ± 0.12
ATATGAAA	-0.0947 ± 0.099
ATAATTGG	0.0135 ± 0.017
AATATAGT	0.0305 ± 0.12
CTGCAGTC	-0.0658 ± 0.016
TCCGACCA	-0.292 ± 0.071
TATCAGAA	-0.079 ± 0.035
ATGAGTTC	-0.0415 ± 0.02
ATAACCGG	0.0419 ± 0.051
AGACTATG	-0.221 ± 0.06
GTATTATA	-0.223 ± 0.0079
CCCAAGTC	-0.153 ± 0.038
CACAGAAA	0.0245 ± 0.04
GACTATGA	-0.0143 ± 0.032
CGGCATAA	-0.276 ± 0.0033
CCTCTCAC	0.362 ± 0.013
TTAACCAA	-0.0676 ± 0.0049
GAAACGCA	-0.0127 ± 0.02
CTCAGGGC	-0.0375 ± 0.077
CTGCCTCC	-0.125 ± 0.0015
AAAGGGGC	-0.191 ± 0.028
AAGCCGGG	-0.191 ± 0.04

Sequence	PBM E-score of 8-mer
TCCCTACA	-0.204 ± 0.044
GTAGGAAC	0.0806 ± 0.051
GAATACCA	-0.0703 ± 0.089
CGTTGTGA	0.2 ± 0.0095
CTTCCGCA	0.166 ± 0.028
CTATGGAA	-0.295 ± 0.035
ACATATCA	0.138 ± 0.029
CTGGAAAG	-0.139 ± 0.0033
CGAGTGGC	0.0287 ± 0.02
CAAACATG	-0.0089 ± 0.032
ACCTTGGC	0.296 ± 0.0078
ACGTCGTC	0.0437 ± 0.027
CACAATAC	0.164 ± 0.028
AGCCAAAA	-0.197 ± 0.016
AGTTCGTA	-0.0736 ± 0.051
TGCGTCCA	-0.135 ± 0.031
CTTGGTTC	-0.176 ± 0.029
CCCGGTAC	-0.2142 ± 0.0021
CCTGCACA	0.0112 ± 0.14
ATGCATAA	-0.123 ± 0.032
CTTGGTGC	0.143 ± 0.062
ATGCATCC	-0.123 ± 0.09
GAATCCTA	-0.26 ± 0.057
CTAGGGCA	-0.221 ± 0.044
AGTCTCGC	0.249 ± 0.07

Sequence	PBM E-score of 8-mer
TCTCTTCA	-0.168 ± 0.053
AAAGCCTA	-0.4185 ± 0.0012
ATGTGTTA	0.446 ± 0.0057
CTCCCCAG	0.0351 ± 0.044
TAGGTGAA	0.252 ± 0.033
GCGACCAA	0.0487 ± 0.036
CGCGTAAA	0.0685 ± 0.02
AACGGCAA	-0.0855 ± 0.14
CATTCATA	-0.125 ± 0.02
ACCCTAAG	-0.0287 ± 0.042
CTCCTCAC	0.202 ± 0.017
GTAGTCCA	-0.29 ± 0.033
GCGCGGCA	0.156 ± 0.014
TACCGTAA	-0.203 ± 0.021
AAAGGGTC	-0.358 ± 0.02
AGGGCACG	-0.012 ± 0.013
GCTATCGA	0.126 ± 0.018
TCAACACA	0.219 ± 0.0044
AGTCCAAT	-0.213 ± 0.064
CTCAATAA	-0.0683 ± 0.044
CCTCGTGC	-0.0357 ± 0.027
CAAGCGAC	0.00558 ± 0.05
GCTTAGCA	0.117 ± 0.04
ACTCATAG	-0.0685 ± 0.02
CCTCGGAA	-0.0981 ± 0.029

Sequence	PBM E-score of 8-mer
GCACTAGA	-0.0939 ± 0.0097
ATACGTTA	0.0272 ± 0.039
AACGATAG	-0.167 ± 0.079
CTAGCCCC	-0.175 ± 0.0022
ATCAGAGC	-0.243 ± 0.0061
ACCCTCTA	-0.0708 ± 0.043
ATAGTCCC	-0.087 ± 0.0053
AACGACAC	0.303 ± 0.007
ATCCGGAA	-0.23 ± 0.0099
ACATGGAT	0.0441 ± 0.048
AACTGCGT	-0.0823 ± 0.031
CATCTTTA	-0.19 ± 0.004
AAAATTAT	-0.0438 ± 0.15
ATCTTCAT	-0.00574 ± 0.021
GATGAACA	0.0325 ± 0.0038
CTTGTTTC	-0.0329 ± 0.054
GGGGGAGA	-0.162 ± 0.037
GCTAGGCA	-0.0506 ± 0.035
ACACCTTC	0.479 ± 0.00068
ATTCGACA	0.158 ± 0.053
AGCCGCGG	-0.16 ± 0.1
AGGACGGC	-0.301 ± 0.04
